Results published in PubChem BioAssay AID1508623 (National Center for Advancing Translational Sciences (NCATS), 2021).
Screen size: about 48,000 compounds; about 450 (0.94%) were called active. Another 19% or so got no clear call; they are omitted. Calls follow the shape of the dose curve; as a rule, active = well fitted inhibition curve with a large enough effect; inconclusive = small, poorly fitted or top-dose-only effect; inactive = no such curve, though single readings can be large or run the other way. This is one part of the list.

assay: Primary qHTS for Identification of Small Molecule Inhibitors of Huntingtin Promoter Activity; conditions: HEK293 HTT promoter firefly luciferase reporter (activity 0% = vehicle and -100% = no light), 24 h; series mostly up to 57.5 µM; activity change, negative = inhibition: at the top concentration; also: nearly all actives have a fitted effect of over 50% in size
Procedure, shortened: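 Firefly luciferase readout (Dual-Glo, 10 min RT) after 24 h, 37 °C compound exposure (final up to 57.5 uM) of HEK293 reporter cells cultured 24 h beforehand; PTC124 at 50 uM final as control inhibitor; activity scaled vehicle 0%, zero RLU -100%.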

Activity change, negative = inhibition, inactive:
COC(=O)CSc1ccc2nnc(CCNS(=O)(=O)c3ccc(C)cc3)n2n1 -0.0981%
COc1ccccc1CNC(=O)Cn1c(-c2cccs2)cc2cc(F)ccc21 -21.6%
CCOc1ccccc1NC(=O)Cn1nc2c3cc(F)ccc3n(Cc3cccc(C)c3)cc-2c1=O -8.92%
COc1cccc(NC(=O)CCc2nc(-c3cc(OC)c(OC)c(OC)c3)no2)c1 -26%
COc1ccc(CCNC(=O)c2cc(-c3ccc(Cl)cc3)on2)cc1OC 19.3%
CCOC(=O)c1ccc(NC(=O)c2cc3c(=O)n(C)c4ccccc4c3n2C)cc1 -6.67%
CCCCCNC(=O)N1CCC(CN(Cc2ccc(Cl)cc2)Cc2ccc([N+](=O)[O-])s2)C1 (stereo unspecified) -8.93%
Cc1ccc(C)c(NC(=O)C(=O)NCCc2csc(-c3cccc(F)c3)n2)c1 -10.8%
Cn1c(=O)cc(SCC(=O)Nc2cccc(C#N)c2)c2ccc(Cl)cc21 -14.3%
Cc1nc2ccccn2c(=O)c1NC(=O)c1ccccc1Cl 32.4%
COc1ccc(N2CCN(C(=O)Cc3noc4ccc(C)cc34)CC2)cc1 -16.6%
Cc1ccc(CN2CCc3nc(N4CCN(C)CC4)ncc3C2)cc1 -21.2%
COc1ccc(Nc2nnc(-c3ccc(C)c(S(=O)(=O)N4CCN(C)CC4)c3)c3ccccc23)cc1 -0.678%
Cc1nc2sccn2c(=O)c1S(=O)(=O)NCc1ccccc1 -9.26%
COC(=O)c1ccc(OC)c(CN2CCCN(Cc3ccc(C)cc3)S2(=O)=O)c1 -5.73%
COc1ccc(Cl)cc1C(=O)NCC(c1ccc(N(C)C)cc1)N1CCOCC1 (stereo unspecified) -6.2%
Cc1cccc(C)c1OCC(=O)N(Cc1ccc(Cl)cc1)CC1CCCO1 (stereo unspecified) -14.2%
O=C(O)CCNC(=O)c1ccccc1 3.35%
Cn1c(=O)c2c(nc(NCCc3ccccc3)n2Cc2ccc(Cl)c(Cl)c2)n(C)c1=O -8.05%
CC(C)c1nn2c(=O)cc(COC(=O)c3ccccc3NC(=O)c3cccs3)nc2s1 -30%
CCCN(Cc1cccs1)C(=O)Nc1ccccc1C -3.32%
CC1CCCN(c2csc3ccccc3c2=O)C1 (stereo unspecified) 67.2%
COc1ccc(S(=O)(=O)NCCc2cn3ccsc3n2)cc1OC 1.27%
CCOc1ccc(N(Cc2cc3cc(C)ccc3[nH]c2=O)C(=O)c2cccc(Cl)c2)cc1 -1.41%
O=C(N[C@H](CO)[C@H](O)c1ccc([N+](=O)[O-])cc1)C(Cl)Cl
Cc1ccc(C)c(CN2CCC(CNC(=O)Cn3ncc4c([nH]c5ccccc54)c3=O)CC2)c1 -2.02%
O=C(NCCCN1CCOCC1)c1ccc2c(c1)N(Cc1ccccc1)C(=O)c1ccccc1S2 -21.5%
NC/C=C/C(=O)O 10.5%
CCOc1ccc(NC(=O)NC(C)c2c(-n3cccc3)sc(C)c2C)cc1 (stereo unspecified) -26.5%
Cc1cccc(OCCCCn2nnc3sc4c(c3c2=O)CCC(C)C4)c1 (stereo unspecified) 12.4%
O=C(Cn1nc(N2CCN(c3ccccc3)CC2)ccc1=O)NCc1cccc(Cl)c1 -4.28%
CCOC(=O)CSc1nc2sc3c(c2c(=O)n1Cc1ccccc1)CC(C)CC3 (stereo unspecified) -1.55%
CCOc1ccccc1CNC(=O)CN1C(=O)CCCc2ccccc21 3.16%
O=C(COc1ccccc1)Nc1ccc(C(=O)OCc2cc(=O)n3nc(C4CC4)sc3n2)cc1 -9.29%
Cc1nc2nc(SCC(=O)NCc3ccccc3)nn2c(C)c1Cc1ccccc1Cl -27.6%
COc1ccc(-n2c(/C=C/c3cc(OC)c(OC)cc3OC)nc3cc4ccccc4cc3c2=O)cc1Cl -6%
Cc1ccc(OCCSc2nc3ccc(NC(=O)COc4ccc(F)cc4)cc3s2)cc1 -0.168%
CCN(CC)CCNC(=O)C1CCN(S(=O)(=O)c2c(C)noc2/C=C/c2ccccc2F)CC1 -19.7%
O=C(Cc1cccs1)NC1CC(=O)N(c2ccccc2)C1 (stereo unspecified) -12.9%
CCc1cccc(C)c1NC(=O)CN1CCCN(Cc2ccc(C)cc2)S1(=O)=O -23.8%
COc1ccc(-c2c(C)nn3c(C(F)(F)F)cc(-c4ccc(Br)cc4)nc23)cc1 -38.3%
O=C(CN1CCCN(Cc2ccccc2Cl)S1(=O)=O)Nc1ccc2c(c1)OCCO2 -1.24%
Cc1cc(C)n2c(Nc3c(C)cccc3C)c(-c3ccsc3)nc2n1 -11.1%
CNC1[C@H](O)C(O[C@@H]2C(O)C(O[C@H]3O[C@H]([C@@H](C)NC)CC[C@H]3N)[C@@H](N)C[C@H]2N)OC[C@]1(C)O (stereo partly specified) -0.651%
CCN(C(=O)COc1cc(=O)n(C)c2ccccc12)c1cccc(C(F)(F)F)c1 -20.9%
Cc1ccc2c(c1)c1c3n2CCNC3CCC1 (stereo unspecified) 1.17%
Cc1ccccc1CN1CCc2nc(Nc3ccc4c(c3)OCCO4)ncc2C1 -26%
CCOc1ccc(C(=O)Nc2ccc(-c3nc4cc(CC)ccc4o3)cc2)cc1 -0.478%
O=C(c1cc2c(=O)[nH]c3ccccc3c2s1)N1CCN(c2ccc(F)cc2)CC1 -10.3%
CC(NC(=O)CCn1c(=O)c2cccn2c2ccc(F)cc21)c1ccccc1 (stereo unspecified) -2.21%
COc1cccc(NC(=O)c2oc3ccccc3c2NC(=O)C23CC4CC(CC(C4)C2)C3)c1 -15.4%
COc1ccc(CN2COc3ccc4c(C)cc(=O)oc4c3C2)cc1 -11%
COc1cccc2c1Oc1nc(-c3ccccc3)nc(SCC(=O)N3CCCCC3)c1C2 -10.8%
COc1ccc(NC(=O)C(=O)NCCc2csc(-c3ccc(Cl)cc3)n2)cc1 -11.8%
O=C(CCn1c(=O)c2cccn2c2ccc(F)cc21)NCCc1ccccc1Cl -7.39%
COC(=O)c1ccc(NC(=O)Nc2nnc(N(C)C3CCCCC3)s2)cc1 9.19%
CCCOc1ccc(Nc2nc(SC)ncc2C(=O)OCC)cc1 -19.8%
Cc1coc2c(C)c3oc(=O)c(CC(=O)N4CCCCC4)c(C)c3cc12 -4.57%
COc1ccc(-c2nc3nc(C)cc(Nc4ccc(C(C)=O)cc4)n3n2)cc1 -11.2%
O=S(=O)(c1ccc(Br)cc1)c1nc(-c2ccco2)oc1SCc1ccccc1Cl -28%
Cc1ccc(CCNC(=O)c2nn(C)c3c2CSc2ccccc2-3)cc1 -17.9%
CCCCOc1ccc(CNC(=O)CN2CCSc3ccccc32)cc1 -35.6%
COc1cccc(CNC(=O)CCn2c(=O)c3cccn3c3ccc(F)cc32)c1OC -13.3%
COc1ccc(-n2nc(C(=O)N(C)c3cccc(C(F)(F)F)c3)c3c4ccccc4n(C)c3c2=O)cc1 -7.28%
NC(=O)c1cccc(-c2cc(Nc3ccc(OC(F)(F)F)cc3)ncn2)c1 -13.4%
CCC(C(=O)N1CCN(c2cccc(C)c2C)CC1)n1nc(C)c2sc3ccccc3c2c1=O (stereo unspecified) -6.7%
CCCNC(=O)C1CCC(Cn2c(=O)c3sccc3n(Cc3cccc(OC)c3)c2=O)CC1 (stereo unspecified) -11.8%
CCn1nnc2cc(C(=O)Nc3cccc(Cl)c3)ccc21 19.2%
Cc1nc2nc(NC(=O)c3cccc(Cl)c3)[nH]n2c(=O)c1Cc1ccccc1 -10.6%
CCOc1ccc(-n2c(-c3ccc(C)cc3)nc3c(cnn3-c3ccccc3)c2=O)cc1 -18.5% [at 11.5 µM]
Cc1ccc(NC(=O)CCn2c(=O)c3cccn3c3ccccc32)c(Cl)c1 -23.1%
COc1ccc(CCNC(=O)CCc2c(C)nc3c(c(C)nn3-c3ccc(C)c(C)c3)c2C)c(OC)c1OC -9.75%
CCOC(=O)c1c(S(=O)(=O)N2CCC(C(=O)Nc3ccccc3OC)CC2)c(C)n(CC)c1C -7.14%
COc1ccc(CCNC(=O)Cn2cc(C(=O)c3ccccc3)c(=O)c3ccc(C)nc32)cc1OC -4.77%
COc1cccc(N2CC(NC(=O)Cc3cccs3)CC2=O)c1 (stereo unspecified) -12%
CCOc1ccc(OCC)c(Nc2nc3ccccc3c3nnc(C)n23)c1 17.7%
Cc1ccc2c(c1)c1c(c(=O)n(-c3ccccc3)c(=O)n1CC(=O)N1CCCC1)n2C -15.2%
CCn1cc(C(=O)NCCc2ccc(C)cc2)c(=O)c2cc(S(=O)(=O)N(C)C)ccc21 -6.29%
Cc1ccccc1C(=O)Nc1ccccc1C(=O)OCc1cc(=O)n2ccsc2n1 -5.64%
CN1C(=O)CC(=O)N(C)c2cc(S(=O)(=O)N(C)Cc3ccccc3)ccc21 -18.7%
CCCCN(CCCC)CCNC(=O)c1cn(C)c2ccc(S(=O)(=O)N3CCOCC3)cc2c1=O -9.56% [at 11.5 µM]
COc1ccc2c(c1)c1c(c(=O)n(-c3ccc(OC)c(OC)c3)c(=O)n1Cc1ccccc1C)n2C 4.05%
Cc1ccc(-n2ncc(C(=O)NCCN3CCN(C)CC3)c2C2CCN(C(=O)OC(C)(C)C)CC2)c(C)c1 -10.2%
CN(Cc1ccccc1)C(=O)CN1C(=O)CSc2ccc(S(=O)(=O)N3CCOCC3)cc21 -8.85%
COc1ccc(OC)c(S(=O)(=O)Nc2cc3c(cc2C)n(C)c(=O)c(=O)n3C)c1 -5.48%
CCc1ccc(-c2cn3c(n2)sc2cc(C(=O)NCCc4ccc(OC)cc4OC)ccc23)cc1 -17.6%
COc1ccccc1NC(=O)Cn1c(=O)n(Cc2ccc3c(c2)OCO3)c(=O)c2oc3ccccc3c21 3.83%
Cc1ccc(NC(=O)NCc2ccc3c(c2)CCN3C(=O)c2ccccc2)c(Cl)c1 -26.3%
COc1ccc(NC(=O)c2cn(CC(C)C)c(=O)c3cc(OC)c(OC)cc23)cc1Cl -22.7%
NS(=O)(=O)c1ccc(CCNC(=O)CCCCCn2c(=O)[nH]c3ccccc3c2=O)cc1 -13.1%
Cc1ccc(NC(=O)c2nn(C)c3c2CS(=O)(=O)c2ccccc2-3)c(Cl)c1 -1.45%
Cc1nc(N2CCOCC2)c2c(C(=O)NCc3cccc(Cl)c3)c(C)oc2n1 8.78%
Oc1c(C(c2ccccc2)N2CCC3(CC2)OCCO3)sc2nc(-c3ccco3)nn12 (stereo unspecified) -8.43%
O=C(CCCCCn1c(=O)c2sccc2n(CC(=O)Nc2cccc(Cl)c2)c1=O)NCc1ccc2c(c1)OCO2 -27.8%
COc1ccc(-c2nc3c(c(SCC(=O)Nc4ccc(C(=O)O)cc4)n2)Cc2ccccc2O3)cc1 3.94%
CCOC(=O)Cc1ccc(NC(=O)Nc2cccc(OCc3cc(=O)n4cc(C)ccc4n3)c2)cc1 5.61%
